Data from PubChem BioAssay (NCI).
“And” between values parts separate entries of the source, which are not always exact repeats. Equal values may be shown once.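 Assay format: 96-well plates, 48-hour exposure. The concentration for 50% growth inhibition is given as GI50. TGI: concentration producing complete growth inhibition.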

Tested on: NCI-H322M lung
Experiment: NCI tumour cell line growth inhibition, 48 h

SMILES	TGI	GI50
CSCCC(NC(=O)C(Cc1c[nH]c2ccccc12)NC(=O)CCNC(=O)OC(C)(C)C)C(=O)NC(CC(=O)O)C(=O)NC(Cc1ccccc1)C(N)=O (centres undefined)	> 50 µM	–
COC(=O)C1=C(O)c2cc(OC)c(OC)c(OC)c2C(c2ccc3c(c2)OCO3)[C@@H]1C(=O)OC (some centres undefined)	> 100 µM	–
O=C(OCC1=CC(=O)c2ccccc2C1=O)c1ccccc1	22.6 µM	8.16 µM
O=C1C=C(NCCc2ccccc2)c2ccccc2C1=O	3 µM	–
COc1ccc(C2=NNC(c3sc(Cl)nc3Cl)C2)cc1 (centres undefined)	25.7 µM	12.4 µM
CCS(=O)(=O)c1cccc(-c2cc(C(=O)NC3CCN(C)CC3)c(C)c3[nH]c4ncc(C)cc4c23)c1	> 9.05 µM and 5.09 µM	1.23 µM and 1.14 µM
COc1ccc(CN2c3ccccc3Sc3ccccc32)cc1O	25.3 µM	11.7 µM
Cc1cc(C)c(S(=O)(=O)N(CCCCCN)OCCCN)c(C)c1	33.6 µM	–
OC[C@H]1N[C@H](CO)[C@@H](O)[C@H]1O	> 100 µM	–
CC(=O)/C(=N\N=C(N)N)c1ccccc1	> 100 µM	–
COc1c2c(c(O)c3c4c(c(C)cc13)C1OC3(C(OC)OC5CC(C)(O)C(OC6CC(C)(O)C(O)C(C)O6)C(C)O5)OC1C(OC)(O4)C31CO1)C(=O)C(O)CC2OC1CC(C)(O)C(OC(C)=O)C(C)O1 (centres undefined)	< 0.01 µM	–
COc1c(OC2OC(C)C(O)C(O)C2O)c(OC)c2oc(-c3ccc(O)cc3)cc(=O)c2c1O (centres undefined)	> 100 µM	42.8 µM
COc1ccc(-c2cn3ccnc3c(-c3ccc(Cl)cc3)n2)cc1	> 100 µM	13 µM
CC(C)(C1=NC(C(C)(C)C)CO1)C1=N[C@@H](C(C)(C)C)CO1 (some centres undefined)	> 100 µM	–
COc1ccc(C2C3=C(COC3=O)Oc3cc4c(cc32)OCO4)cc1OC (centres undefined)	> 100 µM	–
O=C1c2ccccc2-c2c1c1ccccc1c(=O)n2CCNCCNCCNCCNCCn1c2c(c3ccccc3c1=O)C(=O)c1ccccc1-2	0.219 µM	0.0272 µM
CC(C)(C)OC(=O)NCC(c1c[nH]c2ccccc12)c1c[nH]c2ccccc12	30.8 µM	–
C=C1c2nc3ccccc3n2C=C(c2ccccc2)N1c1ccc(C)cc1	> 100 µM	–
CCOC(=O)/C=C/c1ccc([N+](=O)[O-])o1	> 100 µM	79.6 µM
CC(C)(C)N=C1C(=O)C2(C)CCC1C2(C)C (centres undefined)	> 100 µM	–
Cc1cccc(C=NC23CC4CC(CC(C4)C2)C3)c1	> 100 µM	–
C=CCN1C(=O)C[C@H](Cc2ccccc2)NC(=O)C[C@H](Cc2ccccc2)N(CC=C)C(=O)C[C@H](Cc2ccccc2)NC(=O)C[C@@H]1Cc1ccccc1	> 100 µM	–
Nc1ccccc1SC(/C=C/NNC1=NC(c2ccccc2)C(c2ccccc2)=NN1)c1ccccc1 (centres undefined)	29.9 µM	–
C/C(CC(O)(C(F)(F)F)C(F)(F)F)=N\O	> 10 µM	–
CCOC(=O)/C=C(/C(=O)OCC)n1cc(C)c(=O)n(Cc2cn(CCCCOC(C)=O)nn2)c1=O	> 100 µM	–

SMILES	TGI	GI50
CC1(C)CC(=O)C2=C(C1)NC(=S)C(C#N)C2c1ccccc1 (centres undefined)	> 100 µM	–
CCOC(=O)c1sc(NC(=O)COc2ccc(/C=C3\CCc4cc(OC)ccc4C3=O)cc2)nc1C	25.8 µM	12.7 µM
C/C(=N\NC(=S)N1CCCC1)c1ccccn1	11.2 µM	< 0.01 µM
Cc1c(-c2ccc(-c3ccccc3F)cc2)nc2ccc(F)cc2c1C(=O)O	220 µM and 478 µM	41.2 µM
Cc1cc(C)nc(NC(=O)COc2ccc(Cl)cc2)c1	> 100 µM	–
COc1ccc2c(CN3CCCC[C@H]3O)cc3cc4c(cc3c2c1)OCO4	5.12 µM	0.42 µM
COc1ccc(-c2csc3c2[N+]2(C)C=CC=C2C3N2CCCC2)cc1 (centres undefined)	> 100 µM	–
CCOC(=O)C(Cc1cc(OC)c(CC(C(=O)OCC)C(=O)OCC)cc1OC)C(=O)OCC	> 100 µM	–
NCCOCCOCC(=O)O	> 100 µM	–
CC(=O)N1CCOC12N=NC(C)(C)O2 (centres undefined)	> 100 µM	–
CN1COCN=C1NC#N	> 100 µM	–
C[C@@H]1C[C@@H]2OC(=O)[C@]3(C)[C@H]2[C@@H](OC3(C)O)[C@]2(C)C(=O)C=C[C@@H]12 (some centres undefined)	> 100 µM	–
C=C1C(=O)O[C@@H]2C[C@@H](C)[C@@H]3C=CC(=O)[C@@]3(C)[C@@H](OC(=O)CCCC(=O)O[C@H]3[C@@H]4C(=C)C(=O)O[C@@H]4C[C@@H](C)[C@@H]4C=CC(=O)[C@]43C)[C@H]12	2.49 µM	–
CC(C)(O)c1cc(Nc2cc(Oc3cn(C4CC4)nc3C3CCOCC3)ccn2)ccn1	> 100 µM	> 100 µM
CNCC(SC)c1ccc(O)c(O)c1 (centres undefined)	> 100 µM	–
COC(=O)c1ccc(C)cc1C1CN=NC12Cc1cccc(C)c1C2=O (centres undefined)	> 100 µM	–
CN1CCC(O)(OC(=O)C(c2ccccc2)C2(O)CCCC2)CC1 (centres undefined)	> 100 µM	–
C=C(c1ccccc1)c1cc2c(=O)[nH]ccc2n1C	> 100 µM	–
Nc1ccc(C(=O)N/C(=C\c2ccc3c(c2)OCO3)c2nc3ccccc3s2)cc1	29.9 µM	–
Cc1nc(C(=O)OCc2ccccc2)cc(OCc2ccccc2)c1C	> 100 µM	34.5 µM
COc1cc(C=NCC(=O)CSC(c2ccccc2)c2ccccc2)ccc1O	29.9 µM	11.5 µM
COc1ccc(/C=C/C(=O)c2cc(CN(C)C)c(O)c(CN(C)C)c2)cc1	> 100 µM	–
O=C(O)CCN1C(=S)CSC1=S	> 100 µM	–
Cc1cc2ccccc2n2c1nc1ccc(O)cc12	> 10 µM	–
